Laboratory results as given in PubChem BioAssay (NCATS).
This list was built around the results that the source calls inconclusive (neither active nor inactive); the mix of calls is not that of the screen. For some assays here: Potencies beside an inconclusive call are fits to weak or partial responses and may not hold up. The source made the active and inactive calls. Unless noted, the call rests on the fitted dose curve; in most records, active means well fitted curve in the direction sought with a large enough effect; inconclusive means small, poorly fitted or top-dose-only effect, or another doubt; inactive means no such curve, though single readings can be large; an effect the other way counts as inactive or inconclusive.

Experiments:
[1] = qHTS of pediatric cancer cell lines to identify multiple opportunities for drug repurposing: Primary screen for SK-N-MC cells (AID 1347093); conditions: SK-N-MC viability, CellTiter-Glo luminescence, 48 h; activity change, negative = cytotoxic: at 46 µM (top of the series); further: potency means the concentration at half of the fitted maximal effect
Outline: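 Metabolically active cells were quantified by ATP-dependent luminescence (CellTiter-Glo, 15 min at room temperature) following 48 h treatment. Cells had been plated at 500-1,000 per well and settled for 5 h beforehand.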

[2] = qHTS of pediatric cancer cell lines to identify multiple opportunities for drug repurposing: Primary screen for BT-12 cells (AID 1347101); further: nearly all actives have a fitted effect of over 25% in size; further: potency means the concentration at half of the fitted maximal effect
Outline: (§1)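 Cells (500-1,000/well) rested 5 h, then received compounds for 48 h; metabolically active cells were measured by CellTiter-Glo luminescence. Final concentrations spanned up to 46 µM (MIPE, 11-point) or 0.59 nM-46 µM (NPC, 8-point) in primary screens, 11-point in follow-ups.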

[3] = qHTS of pediatric cancer cell lines to identify multiple opportunities for drug repurposing: Primary screen for Rh41 cells (AID 1347108);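 further: luminescence drop marks cytotoxic hits; nearly all actives have a fitted effect of over 70% in size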
Outline: (§2)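 Cells plated at 500-1,000/well in growth medium, compounds added after 5 h. MIPE tested at 11 points (from 0.78 nM), NPC at 8 points (from 0.59 nM). CellTiter-Glo luminescence after 48 h; concentration-response curves from primary screen.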

[4] = Drug repurposing screens with cells derived from glioblastoma tumor samples (AID 1345199); conditions: GBM patient neurospheres viability, ATP luminescence, 48 h; Potency: tumour line A unless noted; series mostly up to 46 µM; further: nearly all actives have a fitted effect of over 40% in size; further: potency means the concentration at half of the fitted maximal effect
Outline: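 Primary testing used CD133+ neurospheres from four GBM patients, seven concentrations, 48 h exposure and ATP-based viability; confirmation added three slower-growing patient lines.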

[5] = system: MKL-2; experiment: qHTS assay to identify novel small-molecules to repurpose for Merkel cell carcinoma treatment (AID 1296009); conditions: MCC and control cell lines, CellTiter-Glo viability, 72 h; activity change, negative = cytotoxicity: at 46 µM (top of the series); further: nearly all actives have a fitted effect of over 60% in size; further: potency means the concentration at half of the fitted maximal effect
Outline: (§3)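 Dose-response viability screen; 72 hr exposure at 37 degree celsius; CellTiter-Glo added, 10 min room temperature, luminescence read; RLUs scaled between no-cell and DMSO wells.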

[6] = qHTS of pediatric cancer cell lines to identify multiple opportunities for drug repurposing: Primary screen for A673 cells (AID 1347092); conditions: A673 Ewing sarcoma viability, CellTiter-Glo ATP luminescence, 48 h; activity change, negative = cytotoxic: at 46 µM (top of the series); further: nearly all actives have a fitted effect of over 45% in size; further: potency means the concentration at half of the fitted maximal effect
Outline: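 Titration-based qHTS on A673 cells: MIPE compounds spanned 11 points (0.78 nM to 46 µM final), NPC compounds 8 points (0.59 nM to 46 µM final). Viability after 48 h was measured by ATP luminescence.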

[7] = qHTS of pediatric cancer cell lines to identify multiple opportunities for drug repurposing: Primary screen for Saos-2 cells (AID 1347097); further: potency means the concentration at half of the fitted maximal effect; nearly all actives have a fitted effect of over 40% in size
Outline: as §2

[8] = qHTS of pediatric cancer cell lines to identify multiple opportunities for drug repurposing: Primary screen for SK-N-SH cells (AID 1347098); further: potency means the concentration at half of the fitted maximal effect; nearly all actives have a fitted effect of over 65% in size
Outline: as §1

[9] = A High-Content qHTS Against Drug Library for the Identification of Small Molecules that Inhibit DYT1 Early Onset Primary Dystonia-Associated Cell Pathology (AID 1645839; calls by dose curve; further: potency means the concentration at half of the fitted maximal effect)
Outline: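 Cells were seeded and left for 24 h, then dosed with compound alongside tetracycline induction of mutant EGFP-TorsinA. They were incubated for 48 h, fixed in 4% paraformaldehyde, permeabilized and imaged for mislocalization (%pathology) and cell count.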

[10] = biological target: Cytochrome P450 2C9 (Homo sapiens) (UniProt P11712); experiment: Cytochrome P450 family 2 subfamily C member 9 (CYP2C9) small molecule antagonists: luciferase biochemical (cell-free) qHTS assay (AID 1645842; active means well fitted curve in the direction sought with a large enough effect in the repeat runs; inconclusive means weak or mixed curves; inactive means no such curve, though single readings can be large; an effect the other way counts as inactive or inconclusive; further: nearly all actives have a fitted effect of over 55% in size)
Sequence of UniProt P11712 (P11712 whole entry, looked up): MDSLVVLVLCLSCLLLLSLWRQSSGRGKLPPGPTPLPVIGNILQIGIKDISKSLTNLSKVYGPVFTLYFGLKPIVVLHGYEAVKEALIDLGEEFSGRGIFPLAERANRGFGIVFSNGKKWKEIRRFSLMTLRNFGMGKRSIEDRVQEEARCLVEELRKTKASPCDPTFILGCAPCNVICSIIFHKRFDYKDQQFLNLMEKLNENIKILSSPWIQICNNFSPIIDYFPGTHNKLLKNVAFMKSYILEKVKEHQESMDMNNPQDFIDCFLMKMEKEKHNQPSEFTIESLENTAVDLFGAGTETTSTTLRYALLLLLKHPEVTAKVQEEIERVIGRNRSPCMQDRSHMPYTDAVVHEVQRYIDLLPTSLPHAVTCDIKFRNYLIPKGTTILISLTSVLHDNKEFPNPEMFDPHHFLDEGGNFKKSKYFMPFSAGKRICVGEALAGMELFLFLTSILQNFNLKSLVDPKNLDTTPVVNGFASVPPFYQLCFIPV
Outline: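 P450-Glo CYP2C9 system: proluciferin substrate with enzyme in mix containing 0.4% BSA, 10 min at room temperature, then NADPH regeneration solution added and incubated 1 h at 37C. Detection reagent stopped reaction; luminescence read after 20 min as RLU.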

[11] = system: JEG-3; experiment: Primary qHTS to identify gynecologic anti-cancer compounds using libraries of approved drugs and bioactive compounds (AID 1345084); conditions: Gynecologic cancer cell panel viability, ATPlite luminescence, 48 h; series mostly up to 57.5 µM; further: potency means the concentration at half of the fitted maximal effect; nearly all actives have a fitted effect of over 55% in size
Outline: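 Five-point cytotoxicity, 48 h drug exposure at 37 C, 5% CO2, on cells seeded 16 h beforehand. ATP content read by ATPlite luminescence.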

[12] = system: UISO; experiment: qHTS assay to identify novel small-molecules to repurpose for Merkel cell carcinoma treatment (AID 1296009); conditions: MCC and control cell lines, CellTiter-Glo viability, 72 h; activity change, negative = cytotoxicity: at 46 µM (top of the series); further: nearly all actives have a fitted effect of over 60% in size; further: potency means the concentration at half of the fitted maximal effect
Outline: as §3

[13] = system: WaGa; experiment: as above; conditions: MCC and control cell lines, CellTiter-Glo viability, 72 h; series mostly up to 46 µM
Outline: as §3

[14] = qHTS of pediatric cancer cell lines to identify multiple opportunities for drug repurposing: Primary screen for OHS-50 cells (AID 1347103); further: potency means the concentration at half of the fitted maximal effect; nearly all actives have a fitted effect of over 40% in size
Outline: as §1

[15] = biological target: Phospholipid hydroperoxide glutathione peroxidase GPX4 (Homo sapiens) (UniProt P36969); experiment: Primary qHTS Assay for Inhibitors of Recombinant Selenoprotein Glutathione Peroxidase 4 (GPX4) (AID 1845192); further: nearly all actives have a fitted effect of over 65% in size; further: potency means the concentration at half of the fitted maximal effect
Sequence of UniProt P36969 (P36969 whole entry, looked up): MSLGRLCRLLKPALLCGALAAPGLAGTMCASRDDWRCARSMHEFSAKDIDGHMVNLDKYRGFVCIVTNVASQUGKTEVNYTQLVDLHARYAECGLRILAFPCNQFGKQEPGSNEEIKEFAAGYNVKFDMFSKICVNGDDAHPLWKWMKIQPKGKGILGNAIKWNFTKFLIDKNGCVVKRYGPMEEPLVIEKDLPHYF
Outline: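 Steps: GPX4 plus compound, 30 min RT; add GR/GSH/NADPH master mix; start with cumene hydroperoxide; read 340/450 nm fluorescence at 0 and 15 min. Finals were 200 nM GPX4, 1 mM GSH, 0.5 mM CHP, 0.5 mM NADPH, 100 nM GR.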

[16] = qHTS of pediatric cancer cell lines to identify multiple opportunities for drug repurposing: Primary screen for BT-37 cells (AID 1347094)
Outline: as §2

[17] = qHTS of pediatric cancer cell lines to identify multiple opportunities for drug repurposing: Primary screen for Rh18 cells (AID 1347102); further: potency means the concentration at half of the fitted maximal effect; nearly all actives have a fitted effect of over 65% in size
Outline: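 Viability after 48 h compound treatment at 37C, 500-1,000 cells/well, read as ATP luminescence with CellTiter-Glo. Primary screens used 11-point (MIPE, 0.78 nM-46 µM) or 8-point (NPC, 0.59 nM-46 µM) final concentrations; follow-up screens used 11-point dilutions.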

[18] = system: MKL-1; experiment: qHTS assay to identify novel small-molecules to repurpose for Merkel cell carcinoma treatment (AID 1296009); conditions: MCC and control cell lines, CellTiter-Glo viability, 72 h; activity change, negative = cytotoxicity: at 46 µM (top of the series); further: nearly all actives have a fitted effect of over 60% in size; further: potency means the concentration at half of the fitted maximal effect
Outline: as §3

[19] = qHTS of pediatric cancer cell lines to identify multiple opportunities for drug repurposing: Primary screen for RD cells (AID 1347104); conditions: RD rhabdomyosarcoma viability, CellTiter-Glo luminescence, 48 h; activity change, negative = cytotoxic: at 46 µM (top of the series); further: nearly all actives have a fitted effect of over 55% in size
Outline: as §2

Measured: Potency
Tags describe the fitted curve by direction and shape.

NNC(=O)c1ccncc1
inconclusive: [1] 0.0024 µM [cytotoxic, full curve, poor fit] | [4] 35.5 µM [inhibitor, partial curve, poor fit] | [5] 29.6 µM [inhibitor, single point]
inactive: [2] | [3]

Nc1nc(Cl)nc2c1ncn2[C@@H]1O[C@H](CO)[C@@H](O)[C@@H]1F
active: [6] 0.422 µM | [11] 11.2 µM | [13] 0.0944 µM
inactive: [3] | [10]
inconclusive: [7] 0.237 µM [cytotoxic, full curve] | [8] 3.86 µM [cytotoxic, full curve] | [2] 0.309 µM [cytotoxic, full curve] | [9] 4.47 µM [inhibitor, full curve, poor fit] | [5] 0.237 µM [inhibitor, full curve] | [12] 0.0841 µM [inhibitor, full curve]

NS(=O)(=O)c1cc2c(cc1Cl)NC(CC1CCCC1)NS2(=O)=O (configuration not stated)
inactive: [6] | [3] | [10] | [12] | [13]
inconclusive: [14] 0.011 µM [cytotoxic, full curve, poor fit] | [15] 3.98 µM [inhibitor, partial curve]

CCCCOCCOC(=O)c1cccnc1
inactive: [3] | [9] | [15] | [12]

CN1C[C@H](C(=O)N[C@]2(C)O[C@@]3(O)[C@@H]4CCCN4C(=O)[C@H](Cc4ccccc4)N3C2=O)C[C@@H]2c3cccc4[nH]cc(c34)C[C@H]21
inactive: [16] | [18] | [12]
inconclusive: [6] 33.5 µM [cytotoxic, single point] | [1] 18.8 µM [cytotoxic, partial curve, poor fit] | [7] 10.6 µM [cytotoxic, partial curve, poor fit] | [2] 24.6 µM [cytotoxic, single point] | [17] 21.1 µM [cytotoxic, partial curve, poor fit] | [14] 24.6 µM [cytotoxic, single point] | [9] 10 µM [inhibitor, partial curve, poor fit]
active: [4] 10 µM

COc1cc(C[C@@H](CO)[C@H](CO)Cc2ccc(O)c(OC)c2)ccc1O
inconclusive: [18] 33.2 µM [inhibitor, single point] | [12] 29.6 µM [inhibitor, single point]
active: [1] 0.209 µM | [2] 10.9 µM | [17] 4.18 µM | [14] 9.68 µM

Cc1c[nH]c2ccccc12
inconclusive: [1] 16.8 µM [cytotoxic, single point] | [4] 39.8 µM [inhibitor, partial curve, poor fit] | [18] 26.6 µM [inhibitor, single point] | [13] 21.1 µM [inhibitor, single point]
inactive: [19] | [5] | [12]

Nc1ccc(C(=O)OCC(O)CO)cc1 (configuration not stated)
inactive: [9] | [18]
inconclusive: [1] 0.0027 µM [cytotoxic, full curve, poor fit]

Nc1ncnc2c1ncn2[C@@H]1O[C@H](CO)[C@@H](O)[C@H]1O
inactive: [19] | [9] | [4]
inconclusive: [6] 21.1 µM [cytotoxic, partial curve] | [1] 13.3 µM [cytotoxic, partial curve, poor fit] | [14] 8.71 µM [cytotoxic, partial curve, poor fit] | [5] 9.44 µM [inhibitor, single point] | [13] 21.1 µM [inhibitor, single point]
